About 550 (1.1%) of roughly 48,000 compounds were called active. Inconclusive results (about 4%) are left out. No stated cut-off is given here; in the data, active means potency below about 15 µM; inconclusive means mostly about 16 µM to 33 µM; inactive means weaker than that. Some of the results follow.
Potency means the concentration at half of the fitted maximal effect.

Chain of UniProt P04062 (P04062 whole entry, looked up): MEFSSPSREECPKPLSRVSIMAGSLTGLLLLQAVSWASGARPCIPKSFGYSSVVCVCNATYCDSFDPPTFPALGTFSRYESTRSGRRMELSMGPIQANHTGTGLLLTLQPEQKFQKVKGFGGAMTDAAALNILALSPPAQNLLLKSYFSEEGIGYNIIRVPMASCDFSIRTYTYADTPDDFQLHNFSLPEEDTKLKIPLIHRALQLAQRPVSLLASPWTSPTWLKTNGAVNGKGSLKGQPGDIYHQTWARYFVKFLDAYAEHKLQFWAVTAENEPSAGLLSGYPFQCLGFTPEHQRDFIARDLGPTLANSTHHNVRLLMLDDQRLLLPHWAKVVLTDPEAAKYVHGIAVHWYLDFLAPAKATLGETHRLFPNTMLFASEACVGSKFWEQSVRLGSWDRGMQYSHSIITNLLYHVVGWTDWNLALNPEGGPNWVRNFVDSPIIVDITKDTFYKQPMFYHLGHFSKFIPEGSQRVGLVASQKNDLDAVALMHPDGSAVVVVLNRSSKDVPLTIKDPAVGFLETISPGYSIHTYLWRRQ

For this test, the target named is Lysosomal acid glucosylceramidase (Homo sapiens) (UniProt P04062). As to the kind of experiment: Glucocerebrosidase.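 Further: the screen sought inhibitors.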 To be noted: purified enzyme, resorufin glucoside fluorescence (screen aimed at inhibitors), 20 min; series mostly up to 77 µM. The method, boiled down:
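Normal human glucocerebrosidase (0.2 nM final) was assayed with resorufin β-D-glucopyranoside (30 uM final) in 50mM citric acid/KH2PO4, 10mM sodium taurocholate, 0.01% tween-20, pH 5.9. Compounds were titrated; fluorescence (Ex 548, Em 600) read after 20 min at RT.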
In the case of `CCOC(=O)C1C2C=CC3(CN(Cc4ccco4)C(=O)C13)O2` (stereo unspecified), the Potency was inactive: > 76.9 µM. Next, `Cc1nc2nc[nH]n2c(=O)c1NC(=O)CC12CC3CC(CC(C3)C1)C2`: inactive: > 76.9 µM. To `COC(=O)CSc1ccc2nnc(-c3ccc(F)cc3)n2n1` belongs inactive: > 76.9 µM; to `O=C(CCNS(=O)(=O)c1ccc2c(c1)CCC(=O)N2)NCc1ccc2c(c1)OCO2`, inactive: > 76.9 µM; to `CC1(C)OC(=O)C(=CNc2ncccn2)C(=O)O1`, inactive: > 76.9 µM. To `CCOc1ccc2nc3sc(C(=O)N4CCN(C)CC4)c(N)c3cc2c1` belongs inactive: > 76.9 µM; to `Cn1cc(CN2CCN(c3ccccc3)CC2)c2ccccc21`, inactive: > 76.9 µM. Consider `COc1ccc(NC(=O)CSc2nnc(C3CC3)n2N)cc1`, for which the Potency is inactive: > 76.9 µM. To `CCOC(=O)CN(C(=O)CNC(=O)c1ccco1)C(C(=O)NC1CCCC1)c1ccccc1OCC` (stereo unspecified) belongs inactive: > 76.9 µM; to `O=C(CN1CCOCC1)Nc1ccc(NC(=O)CN2CCOCC2)c(Cl)c1`, inactive: > 76.9 µM; to `CCCC(c1nnnn1C(C)(C)CC)N1CCN(C2CCCC2)CC1` (stereo unspecified), inactive: > 76.9 µM. Next, `CC(C(=O)NCc1cccnc1)N1C(=O)c2ccccc2C1=O` (stereo unspecified): inactive: > 76.9 µM.

Take `CCOC(=O)C1CCCN(C(=O)c2cn(CC(C)C)c(=O)c3cc(OC)c(OC)cc23)C1` (stereo unspecified): the Potency was inactive: > 76.9 µM.

As to `CCOc1cc(C)c(Cl)cc1S(=O)(=O)N(C)C`, the Potency is inactive: > 76.9 µM. Next, `O=C(CCS(=O)(=O)c1cc(Br)cc2c1N(C(=O)C1CC1)CC2)NCC1CCCO1` (stereo unspecified): inactive: > 76.9 µM; `Cc1nc(C(C)(C)O)n(-c2ccccc2)n1`: inactive: > 76.9 µM. Consider `O=C(c1ccccc1)c1c[nH]c2cc3c(cc2c1=O)OCO3`, for which the Potency is inactive: > 76.9 µM. As to `O=C(c1ccc2c(c1)OCO2)N1CCN(c2ccccc2)CC1`, the Potency was inactive: > 76.9 µM. As to `O=C(O)c1cc2cc(F)ccc2[nH]1`, the Potency is inactive: > 76.9 µM. For the compound `COc1ccccc1NC(=O)CCC(=O)O`, the Potency is inactive: > 76.9 µM. To `Cc1ccccc1-c1nnc(SCc2ccccc2F)o1` belongs inactive: > 76.9 µM; to `COC(=O)C1C2C=CC3(CN(c4cccc(C)c4)C(=O)C13)O2` (stereo unspecified), inactive: > 76.9 µM. For `COc1ccc(S(=O)(=O)n2nc(OC(=O)c3ccc(C)cc3)cc2N)cc1`, the Potency was inactive: > 76.9 µM. To `Cc1cc(N2CCN(S(=O)(=O)c3ccc4c(c3)OCCO4)CC2)n2ncnc2n1` belongs inactive: > 76.9 µM; to `COC(=O)c1cccc(Oc2nc3c(c(=O)n(C)c(=O)n3C)n2Cc2ccc(C)cc2)c1`, inactive: > 76.9 µM. Consider `CCCCCn1c(N2CCN(Cc3ccccc3)CC2)nc2c1c(=O)[nH]c(=O)n2C`, for which the Potency is inactive: > 76.9 µM. For the compound `COc1ccc(C)cc1S(=O)(=O)N(CC(=O)O)c1ccccc1`, the Potency was inactive: > 76.9 µM. Next, `CC1CCCC(C)N1C(=O)c1cc(-c2ccc(Cl)c(Cl)c2)on1` (stereo unspecified): inactive: > 76.9 µM; `CCc1nnc(NC(=O)C(C)N2C(=O)C3C4C=CC(C4)C3C2=O)s1` (stereo unspecified): inactive: > 76.9 µM; `Cn1c(SCC(=O)Nc2ccc3cn[nH]c3c2)nnc1-c1cnccn1`: inactive: > 76.9 µM. To `O=C(Cn1c(NCCCO)nc2ccccc21)c1cccc(Br)c1` belongs inactive: > 76.9 µM; to `CC(=O)N1CCc2cc(Br)cc(S(=O)(=O)NCC3CCCO3)c21` (stereo unspecified), inactive: > 76.9 µM. To `O=C(CN1CCOCC1)Nc1ccc(Oc2ccccc2)cc1` belongs “inactive”; to `CS(=O)(=O)N(CC(=O)Nc1cccnc1)c1ccc2c(c1)OCO2`, inactive: > 76.9 µM; to `COc1ccc(C2C(C(=O)NCc3cccnc3)c3ccccc3C(=O)N2C)cc1OC` (stereo unspecified), inactive: > 76.9 µM. Consider `COc1ccc(C2=Nn3c(nnc3-c3cccnc3)SC2)cc1`, for which the Potency entry is “inactive”. Next, `CN(C1CCCCC1)S(=O)(=O)c1ccc(NC(=O)C2CCCCC2C(=O)O)cc1` (stereo unspecified): inactive: > 76.9 µM; `COc1ccc(C2=CC(c3ccc(Cl)cc3)n3cnnc3N2)cc1OC` (stereo unspecified): inactive: > 76.9 µM; `CCOC(=O)c1nnc2ccnn2c1N`: inactive: > 76.9 µM. With `O=C(Nc1ccccc1N1CCN(c2ccc(F)cc2)CC1)C1CCCCC1`, the Potency is inactive: > 76.9 µM.

Consider `O=C(c1ccco1)N1CCN(C(c2ccccc2Cl)c2nnnn2Cc2cccs2)CC1` (stereo unspecified), for which the Potency is inactive: > 76.9 µM.

As to `COC(=O)N/C(C)=C1/NC(=O)c2ccccc2C(c2ccccc2)N1` (stereo unspecified), the Potency is inactive: > 76.9 µM.

`O=C(Cn1cnc2c(cnn2-c2ccc(F)cc2)c1=O)N1CCCc2ccccc21`: the Potency is inactive: > 76.9 µM. Next, `CCn1c(CC(=O)Nc2ccc(C)cc2)nnc1SCC(=O)N1CCN(c2ccccc2)CC1`: inactive: > 76.9 µM; `Cc1ccc(-c2csc3n[nH]c(=S)n23)cc1`: inactive: > 76.9 µM. To `C=CCOc1ccc(CNc2nn[nH]n2)cc1` belongs inactive: > 76.9 µM. For `CCCn1c(SCC(=O)N2c3ccccc3Sc3ccccc32)nc2c1c(=O)n(C)c(=O)n2C`, the Potency was inactive: > 76.9 µM. On to `O=C1c2ccccc2S(=O)(=O)N1CCOc1ccc(F)cc1`, for which the Potency is inactive: > 76.9 µM. To `COCC(=O)Nc1nnc(COc2ccccc2)s1` belongs inactive: > 76.9 µM. Next, `CC1(C)CC(=O)c2cnc(NC(=O)CSc3nc4ccccc4o3)nc2C1`: inactive: > 76.9 µM; `CC(NC(=O)Nc1ccccc1C(F)(F)F)C1CCCO1` (stereo unspecified): inactive: > 76.9 µM; `COc1ccc(C2C3=C(N=C4SCC(=O)N42)c2ccccc2CC3)cc1OC` (stereo unspecified): inactive: > 76.9 µM. Next, `O=S1(=O)CC=C(CSc2nc3ccccc3[nH]2)C1`: inactive: > 76.9 µM; `Fc1cccc2sc(N3CCOCC3)nc12`: inactive: > 76.9 µM.

As for `Cc1cc(Cl)ccc1NC(=O)CSc1nnc(-c2ccncc2)n1Cc1ccco1`, the Potency was inactive: > 76.9 µM. Next, `Cc1ccc(C2C(C#N)=C(N)Oc3c2oc(CO)cc3=O)o1` (stereo unspecified): inactive: > 76.9 µM.

For the compound `Cc1nc2cc(NC(=O)N3CCN(c4ccccn4)CC3)ccc2o1`, the Potency is inactive: > 76.9 µM.

On to `COc1ccc(CNC(=O)C2CCCN2S(=O)(=O)c2ccc(S(=O)(=O)N(C)C)cc2)cc1` (stereo unspecified), for which the Potency is inactive: > 76.9 µM. Consider `COc1ccc(OC)c(-c2cc(C(=O)N3CCc4ccccc4C3)no2)c1`, for which the Potency is inactive: > 76.9 µM. Next, `Cc1ccc(S(=O)(=O)N2CCN(S(=O)(=O)N3CCCCC3)CC2)c(C)c1`: inactive: > 76.9 µM.

For `Cc1cccc(NC(=O)CSc2nnc(-c3ccncc3)n2C)c1`, the Potency was inactive: > 76.9 µM.

As to `Cc1cnc(NC(=O)C(C)N2C(=O)C3CC=CCC3C2=O)s1` (stereo unspecified), the Potency is inactive: > 76.9 µM. On to `Cc1ccc(NC(=O)CN2C(=O)COc3ccc(C)cc32)nc1`, for which the Potency is inactive: > 76.9 µM. To `COc1cc(C2c3c(n[nH]c3C)C(=O)N2c2ccc(Br)cc2)ccc1O` (stereo unspecified) belongs inactive: > 76.9 µM. To `COc1cc(NC(=O)C(C)Oc2ccccc2)cc(OC)c1` (stereo unspecified) belongs inactive: > 76.9 µM; to `COCCNc1nc2c(c(=O)n(C)c(=O)n2C)n1Cc1cccc(C)c1`, inactive: > 76.9 µM; to `COc1ccc(S(=O)(=O)Nc2ccc(S(=O)(=O)N3CCCCC3)cc2)cc1OC`, inactive: > 76.9 µM. Next, `COc1ccc(NC(=O)CNCCC2=CCCCC2)cc1`: inactive: > 76.9 µM; `C=CCN(C(=O)CNC(=O)c1ccco1)C(C(=O)NC1CCCCC1)c1ccc(F)cc1` (stereo unspecified): inactive: > 76.9 µM.

For the compound `Cc1ccc(NC(=O)N2CCCC2C(=O)NCCc2ccccc2)cc1` (stereo unspecified), the Potency is inactive: > 76.9 µM. In the case of `COc1ccc(S(=O)(=O)N(CC(=O)NCC2CCCO2)c2ccccc2)cc1OC` (stereo unspecified), the Potency was inactive: > 76.9 µM. To `CCOC(=O)c1nnn(-c2nonc2OC)c1-c1ccccc1` belongs inactive: > 76.9 µM; to `CC1CCc2cc(F)ccc2N1C(=O)CSc1nnc(-c2cccs2)n1C` (stereo unspecified), inactive: > 76.9 µM.

Take `CCCCc1c(O)nc(SCC(=O)N2CCCCC2)n(-c2ccccc2C)c1=O`: the Potency was inactive: > 76.9 µM. To `CC(C)(C)C(=O)NC(=C(Cl)Cl)P(=O)(O)O` belongs inactive: > 76.9 µM. To `COc1ccc2nc3oc(C(=O)N4CCN(c5cccc(Cl)c5)CC4)cc3cc2c1` belongs inactive: > 76.9 µM. To `Cc1ccc(C2C(C(=O)c3sc(-c4ccccc4)nc3C)=C(O)C(=O)N2CCN(C)C)o1` (stereo unspecified) belongs inactive: > 76.9 µM; to `CCCS(=O)(=O)N1CCCC(C(=O)NC2CCCC(C)C2C)C1` (stereo unspecified), inactive: > 76.9 µM; to `Cc1nnc(NC(=O)CSc2nnnn2Cc2ccccc2)s1`, “inactive”.

Consider `CCCOc1ccc(NC(N)=O)cc1OCCC`, for which the Potency was inactive: > 76.9 µM. Next, `CC1CCc2ccccc2N1C(=O)c1cccs1` (stereo unspecified): inactive: > 76.9 µM; `CC(C)NC(=O)C1CC(=O)N(c2ccc(F)c(Cl)c2)C1` (stereo unspecified): inactive: > 76.9 µM.

As to `Cc1nnc(SCCn2c(N3CCCC(C)C3)nc3c2c(=O)[nH]c(=O)n3C)s1` (stereo unspecified), the Potency was inactive: > 76.9 µM. To `O=C1C2C(C(=O)N1c1ccncc1)C1C=CC2C12CC2` (stereo unspecified) belongs inactive: > 76.9 µM. Regarding `c1n[nH]c(SCCCCSc2ncn[nH]2)n1`, the Potency is inactive: > 76.9 µM. To `CCOc1ccc(C(C)=O)cc1N1C(=O)C2C3C=CC(C3=C(C)C)C2C1=O` (stereo unspecified) belongs inactive: > 76.9 µM; to `Cc1cnc(C(=O)Nc2ccc(F)c(F)c2)cn1`, inactive: > 76.9 µM. To `CC(=O)Nc1nonc1NC(C)=O` belongs inactive: > 76.9 µM. To `c1ccc(-c2nn3c(Cn4nnc5ccccc54)nnc3s2)nc1` belongs inactive: > 76.9 µM. Consider `c1cc2c(cc1Nc1nc(-c3ccc4c(c3)OCO4)cs1)OCCO2`, for which the Potency was inactive: > 76.9 µM.

For the compound `COc1ccc(C)cc1NC(=O)CCN1CCCC1`, the Potency was inactive: > 76.9 µM.

(Values after PubChem BioAssay AID360 (National Center for Advancing Translational Sciences (NCATS), 2006).)
